# Reference: PubChem BioAssay (Tox21)
# Where “and” joins values, the source holds several entries; their conditions need not be identical. Identical values can stand only once. The inconclusive results got no clear call from the source; some entries with a clear call stand among them for comparison. For some of these results: A potency beside an inconclusive call is a rough fit, not a confirmed value. More than one record can exist for a structure, and the calls need not agree. Calls of active or inactive are those of the source. Calls come from the whole dose curve; as a rule, active = well fitted curve in the direction sought with a large enough effect in the repeat runs; inconclusive = weak or mixed curves; inactive = no such curve, though single readings can be large; an effect the other way counts as inactive or inconclusive.
# How the values were obtained:
# [1] = qHTS assay to identify small molecule antagonists of the estrogen related receptor (ERR) signaling pathway from Tox21 library (AID 1224848); note: nearly all actives have a fitted effect of over 50% in size
# Outline: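 Cells: ERR line, 2,000/well; 6 h preincubation 37 C/5% CO2. Cpd in DMSO via pin tool; 18 h, 37 C. ONE-Glo, 30 min RT, luminescence.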
# [2] = qHTS RealTime-Glo MT Cell Viability Assay in HEK293 cells - 16 hour (AID 1224872); note: nearly all actives have a fitted effect of over 50% in size
# Outline: (§1)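 Viability tracked continuously by luminescence as live cells reduce a prosubstrate for NanoLuc; HEK293 cells preincubated 5 h, compound-treated at 37 C, and read at 0, 8, 16, 24, 32 and 40 h.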
# [3] = qHTS RealTime-Glo MT Cell Viability Assay in HEK293 cells - 32 hour (AID 1224868); note: nearly all actives have a fitted effect of over 50% in size
# Outline: as §1
# [4] = A CellTox Green Cytotoxicity Assay to monitor cytotoxicity in HEK293 cells - 40 hour (AID 1224871); note: nearly all actives have a fitted effect of over 45% in size
# Outline: (§2)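 HEK293 cells premixed with CellTox Green dye were seeded at 600 cells/well and left 5 h at 37 C/5% CO2 before pin transfer of 23 nL compound in DMSO. Fluorescence from dye bound to dead-cell DNA was read during 40 h treatment.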
# [5] = qHTS RealTime-Glo MT Cell Viability Assay in HEK293 cells - 40 hour (AID 1224874); conditions: RealTime-Glo luminescence; max response: stronger effect = lower value; note: nearly all actives have a fitted effect of over 50% in size; for max response: % is set by controls: 0 for no effect and ±100 for the full control effect
# Outline: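 HEK293 cells mixed with RealTime-Glo reagents (NanoLuc plus cell-permeant prosubstrate) at 600 cells/well, preincubated 5 h at 37 C/5% CO2, then given 23 nL compound in DMSO. Nonlytic luminescence from viable cells was read at 0, 8, 16, 24, 32 and 40 h.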
# [6] = A CellTox Green Cytotoxicity Assay to monitor cytotoxicity in HEK293 cells - 24 hour (AID 1224875); note: nearly all actives have a fitted effect of over 45% in size
# Outline: as §2
# [7] = qHTS RealTime-Glo MT Cell Viability Assay in HepG2 cells - 8 hour (AID 1224873); note: nearly all actives have a fitted effect of over 55% in size
# Outline: (§3)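 HepG2 cells mixed with RealTime-Glo MT reagents (NanoLuc plus cell-permeant prosubstrate) were seeded at 600 cells/well, incubated 5 h at 37 C/5% CO2, then pinned with compounds in DMSO; nonlytic luminescence tracked viability during 40 h treatment.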
# [8] = qHTS RealTime-Glo MT Cell Viability Assay in HepG2 cells - 24 hour (AID 1224867); note: nearly all actives have a fitted effect of over 50% in size
# Outline: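 Viability was tracked continuously by NanoLuc luminescence from prosubstrate reduced by living HepG2 cells, at successive time points over 40 h of compound exposure. Cells with reagent were preincubated 5 h at 37 °C before compound addition.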
# [9] = A CellTox Green Cytotoxicity Assay to monitor cytotoxicity in HEK293 cells - 0 hour (AID 1224869); note: nearly all actives have a fitted effect of over 50% in size
# Outline: as §2
# [10] = qHTS RealTime-Glo MT Cell Viability Assay in HepG2 cells - 40 hour (AID 1224870); note: nearly all actives have a fitted effect of over 50% in size
# Outline: as §3
# Potency is the fitted concentration of half-maximal effect; tags give direction and shape of the fitted curve.
smiles,measurement,setting,value
CCCN(CCC)c1c([N+](=O)[O-])cc(S(C)(=O)=O)cc1[N+](=O)[O-],Potency,[1],"inconclusive: 61.1 µM [inhibitor, single point]"
same,Potency,[2],active: 15.5 µM
Clc1ccc(C(OCCN2CCCCC2)c2ccccc2)cc1 (stereo not drawn),Potency,[1],"inconclusive: 33.5 µM [inhibitor, partial curve, poor fit]"
same,Potency,[3],"inconclusive: 23.9 µM [cytotoxic, partial curve]"
same,Potency,[4],"inconclusive: 26.8 µM [activator, single point]"
same,Potency,[2],"inconclusive: 9.52 µM [cytotoxic, partial curve]"
same,Potency,[5],"inconclusive: 26.8 µM [cytotoxic, partial curve]"
same,Potency,[6],"inconclusive: 26.8 µM [activator, single point]"
O=C(Nc1ccccc1)Nc1cnns1,Potency,[1],inconclusive: 68.5 µM [inhibitor]
same,Potency,[2],"inconclusive: 24.5 µM [cytotoxic, partial curve]"
COP(=S)(Oc1cc(Cl)c(Br)cc1Cl)c1ccccc1 (stereo not drawn),Potency,[1],"inconclusive: 68.6 µM [inhibitor, single point]"
same,Potency,[3],"inconclusive: 21.9 µM [cytotoxic, partial curve]"
same,Potency,[2],"inconclusive: 21.9 µM [cytotoxic, partial curve]"
same,Potency,[5],"inconclusive: 24.5 µM [cytotoxic, partial curve]"
Nc1ccc(Cl)c(Cl)c1,Potency,[1],inconclusive: 19.8 µM [inhibitor]
same,Potency,[3],"inconclusive: 24.5 µM [cytotoxic, partial curve]"
same,Potency,[5],"inconclusive: 21.9 µM [cytotoxic, partial curve]"
Oc1cccc(Cl)c1Cl,Potency,[1],"inconclusive: 34.5 µM [inhibitor, partial curve]"
same,Potency,[3],"inconclusive: 49.2 µM [cytotoxic, partial curve]"
same,Potency,[2],"inconclusive: 55.2 µM [cytotoxic, partial curve, poor fit]"
same,Potency,[5],"inconclusive: 55.2 µM [cytotoxic, partial curve]"
CC(C)(O)C(=O)Nc1ccc([N+](=O)[O-])c(C(F)(F)F)c1,Potency,[1],active: 9.89 µM and active: 17.8 µM
same,Potency,[3],active: 25.1 µM and active: 16 µM
same,Potency,[2],active: 25.1 µM and active: 25.3 µM
N#Cc1cc([N+](=O)[O-])ccc1N,Potency,[1],inactive
same,Potency,[4],inactive
O=C(CBr)c1ccc(O)cc1,Potency,[1],"inconclusive: 68.6 µM [inhibitor, single point]"
same,Potency,[3],"inconclusive: 54.9 µM [rising, single point]"
same,Potency,[2],"inconclusive: 54.9 µM [rising, single point]"
CC[C@H]1C[C@H]2[C@@H]3CCC4=CC(=O)CC[C@@H]4[C@H]3CC[C@]2(C)[C@H]1O,Potency,[1],active: 29.8 µM
same,Potency,[3],"inconclusive: 23.9 µM [cytotoxic, partial curve]"
same,Potency,[4],"inconclusive: 23.9 µM [activator, single point]"
same,Potency,[2],"inconclusive: 23.9 µM [cytotoxic, partial curve]"
same,Potency,[7],inactive
same,Potency,[5],active: 23.9 µM
C[C@]12CCC(=O)C=C1CC[C@@H]1[C@@H]2CC[C@@]2(C)[C@H]1CC[C@]2(C)O,Potency,[8],"inconclusive: 44 µM [phenotype inactive, partial curve, poor fit]"
same,Potency,[3],"active: 22.1 µM and inconclusive: 19 µM [cytotoxic, partial curve]"
same,Potency,[9],active: 44 µM
same,Potency,[2],"inconclusive: 23.9 µM [cytotoxic, partial curve, poor fit]"
same,Potency,[7],"inconclusive: 39.2 µM [phenotype inactive, partial curve, poor fit]"
same,Potency,[5],"active: 19.7 µM and inconclusive: 16.9 µM [cytotoxic, partial curve]"
c1ccc2c(c1)Nc1ccccc1S2,Potency,[1],"inconclusive: 21.7 µM [inhibitor, full curve]"
same,Potency,[2],active: 6.92 µM and active: 12 µM
same,Potency,[7],"inconclusive: 24.5 µM [phenotype inactive, partial curve, poor fit]"
CC(C)c1c(CN(C)C(C)Cc2ccccc2)n(C)n(-c2ccccc2)c1=O (stereo not drawn),Potency,[8],inactive
same,Potency,[3],"inconclusive: 10.7 µM [cytotoxic, partial curve]"
same,Potency,[2],"inconclusive: 12 µM [cytotoxic, partial curve]"
same,Potency,[5],"inconclusive: 10.7 µM [cytotoxic, partial curve]"
CCCCCCn1cc[n+](C)c1,Potency,[8],"inconclusive: 56.1 µM [falling, partial curve]"
same,Potency,[3],"inconclusive: 12.8 µM [cytotoxic, full curve]"
same,Potency,[10],active: 35.4 µM
same,Potency,[4],"inconclusive: 56.1 µM [activator, single point]"
same,Potency,[2],"inconclusive: 19.6 µM [cytotoxic, partial curve] [middle of 6 runs]"
same,Potency,[5],"inconclusive: 11.4 µM [cytotoxic, full curve]"
same,Potency,[6],"inconclusive: 63 µM [activator, single point]"
Cn1cc(-c2ccccc2)c(=O)c(-c2cccc(C(F)(F)F)c2)c1,Potency,[1],"inconclusive: 30.6 µM [inhibitor, partial curve, poor fit]"
same,Potency,[5],"inconclusive: 47.8 µM [cytotoxic, single point] and inconclusive: 54.9 µM [cytotoxic, partial curve, poor fit]"
C=C1C[C@@H]2[C@H](CC[C@]3(C)C(=O)CC[C@@H]23)[C@@]2(C)C=CC(=O)C=C12,Potency,[1],"inconclusive: 26.6 µM [inhibitor, partial curve]"
same,Potency,[6],inactive
CCOP(=O)(CN(CCO)CCO)OCC,Potency,[8],inactive
CC(C)=CC1C(C(=O)OCN2C(=O)C3=C(CCCC3)C2=O)C1(C)C (stereo not drawn),Potency,[1],"inconclusive: 68.6 µM [inhibitor, single point] and inconclusive: 33.5 µM [inhibitor, partial curve, poor fit]"
same,Potency,[5],"inconclusive: 0.425 µM [cytotoxic, single point]"
C[CH2][Hg][N]1C(=O)C2C(C1=O)C1(Cl)C(Cl)=C(Cl)C2(Cl)C1(Cl)Cl (stereo not drawn),Potency,[1],"inconclusive: 16.4 µM [inhibitor, single point]"
same,Potency,[7],active: 7.37 µM
same,Potency,[6],active: 4.65 µM
C=C(C#N)CCC#N,Potency,[8],inactive
CC(C)N(C(=O)COc1nnc(C(F)(F)F)s1)c1ccc(F)cc1,Potency,[8],"inconclusive: 17.4 µM [falling, partial curve]"
same,Potency,[3],"inconclusive: 34.7 µM [cytotoxic, partial curve]"
same,Potency,[10],"inconclusive: 34.7 µM [falling, partial curve, poor fit]"
same,Potency,[7],"inconclusive: 12.3 µM [falling, full curve]"
same,Potency,[5],"inconclusive: 38.9 µM [cytotoxic, partial curve]"
CC1COC(Cn2cncn2)(c2ccc(Oc3ccc(Cl)cc3)cc2Cl)O1 (stereo not drawn),Potency,[8],"inconclusive: 43.6 µM [falling, partial curve]"
same,Potency,[3],active: 19.5 µM
same,Potency,[10],"inconclusive: 49 µM [falling, partial curve, poor fit]"
same,Potency,[7],"inconclusive: 43.6 µM [falling, partial curve]"
COCCl,Potency,[1],"inconclusive: 45 µM [inhibitor, partial curve, poor fit]"
same,Potency,[6],"inconclusive: 22.7 µM [activator, full curve, poor fit]"
Clc1ccc(CSC(Cn2ccnc2)c2ccc(Cl)cc2Cl)cc1 (stereo not drawn),Potency,[8],"inconclusive: 23.9 µM [falling, single point]"
same,Potency,[3],"inconclusive: 16.9 µM [cytotoxic, partial curve]"
same,Potency,[10],"inconclusive: 23.9 µM [falling, partial curve, poor fit]"
same,Potency,[4],inactive
same,Potency,[2],"inconclusive: 16.9 µM [cytotoxic, partial curve]"
same,Potency,[7],"inconclusive: 26.8 µM [falling, single point]"
same,Potency,[5],"inconclusive: 16.9 µM [cytotoxic, partial curve]"
Cc1cc(O)ccc1Cl,Potency,[8],inactive
CC(=O)[O-].CC(=O)[O-].O.O.[Cd+2],Potency,[8],"inconclusive: 54.2 µM [falling, single point]"
same,Potency,[3],"inconclusive: 0.153 µM [rising, partial curve]"
same,Potency,[4],"inconclusive: 24.2 µM [activator, partial curve, poor fit]"
same,Potency,[2],"inconclusive: 0.153 µM [rising, full curve]"
same,Potency,[6],"inconclusive: 54.2 µM [activator, single point]"
Oc1c(Br)c(Br)c(Br)c(Br)c1Br,Potency,[8],inactive
same,Potency,[3],"inconclusive: 55.3 µM [cytotoxic, single point]"
same,Potency,[2],"inconclusive: 55.3 µM [cytotoxic, single point]"
same,Potency,[5],"inconclusive: 55.3 µM [cytotoxic, single point]"
CCOP(=S)(OCC)Oc1ccc2c(C)c(Cl)c(=O)oc2c1,Potency,[1],"inconclusive: 68.6 µM [inhibitor, single point]"
same,Potency,[7],"inconclusive: 54.9 µM [falling, single point]"
same,Potency,[5],active: 12.4 µM and active: 43.6 µM
same,max response,[5],inactive: -24.9%
COc1ccc(N)cc1N,Potency,[8],"inconclusive: 56.7 µM [falling, single point]"
same,Potency,[3],"inconclusive: 29.7 µM [cytotoxic, single point]"
same,Potency,[4],"inconclusive: 56.7 µM [activator, single point]"
same,Potency,[2],"inconclusive: 26.4 µM [cytotoxic, single point]"
same,Potency,[7],"inconclusive: 56.7 µM [falling, partial curve, poor fit]"
